Assay results taken from publication PMC12820563, “FoxP3 forms a head-to-head dimer in vivo and stabilizes its multimerization on adjacent microsatellites”.
The other results are listed elsewhere or left out.

Each sequence was assayed against T1, MBP-FoxP1dN (Mus musculus, UniProt P58462 326-579) (assay: PD-seq (MBP pull-down with sequencing); 20 mM Tris-HCl pH 7.5, 100 mM NaCl, 1.5 mM MgCl2, 0.4 uM protein, 0.1 uM dsDNA library, 30 min, room temperature, amylose pull-down; high values mean tight binding). Conditions: protein: recombinant; tags: His6-MBP; chain copies: 2; dsDNA, one strand shown.
T1 sequence: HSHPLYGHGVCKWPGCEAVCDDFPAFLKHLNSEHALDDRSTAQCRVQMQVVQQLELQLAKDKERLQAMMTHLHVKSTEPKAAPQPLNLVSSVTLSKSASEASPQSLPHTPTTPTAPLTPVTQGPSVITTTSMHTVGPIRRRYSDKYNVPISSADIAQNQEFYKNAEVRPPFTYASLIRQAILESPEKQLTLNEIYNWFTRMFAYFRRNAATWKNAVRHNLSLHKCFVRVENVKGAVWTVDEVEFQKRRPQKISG
In short: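 Binding is given as reads-per-million enrichment, pull-down over input, with replicates pooled. The bait was an N-terminus-lacking mouse FoxP3 or FoxP1 fragment with a His6-MBP tag, expressed in E. coli and used at 0.4 µM with 0.1 µM Klenow-filled degenerate double-stranded DNA library for 30 min at room temperature in Tris pH 7.5 buffer with NaCl and MgCl2. Amylose resin pull-down with three washes was followed by proteinase K release, PCR barcoding and Illumina sequencing.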

Row | Sequence | binding signal
1 | GATGATTGTTCTCCCAGCTGATGAATTGCTAGGCTCGAGTAAACAAATTTTCCTAATCTTTCTGTTCAAGCGCCATCTAC | 0.84 RPM ratio (pull-down/input)
2 | GATGATTGTTCTCCCAGCTGATGAATTAGTGTGCTCGAGTAAACAAATTTTCCTAATCTTTCTGTTCAAGCGCCATCTAC | 0.982 RPM ratio (pull-down/input)
3 | GATGATTGTTCTCCCAGCTGATGAATTTACTAGCTCGAGTAAACAAATTTTCCTAATCTTTCTGTTCAAGCGCCATCTAC | 1.14 RPM ratio (pull-down/input)
4 | GATGATTGTTCTCCCAGCTGATGAATTACTCATCTCGAGTAAACAAATTTTCCTAATCTTTCTGTTCAAGCGCCATCTAC | 1.06 RPM ratio (pull-down/input)
5 | GATGATTGTTCTCCCAGCTGATGAATTCCGGTACTCGAGTAAACAAATTTTCCTAATCTTTCTGTTCAAGCGCCATCTAC | 0.855 RPM ratio (pull-down/input)
6 | GATGATTGTTCTCCCAGCTGATGAATTAGTCGCATCGAGTAAACAAATTTTCCTAATCTTTCTGTTCAAGCGCCATCTAC | 1.23 RPM ratio (pull-down/input)
7 | GATGATTGTTCTCCCAGCTGATGAATTGAAGATTTCGAGTAAACAAATTTTCCTAATCTTTCTGTTCAAGCGCCATCTAC | 0.9 RPM ratio (pull-down/input)
8 | GATGATTGTTCTCCCAGCTGATGAATTAACACTATCGAGTAAACAAATTTTCCTAATCTTTCTGTTCAAGCGCCATCTAC | 1.08 RPM ratio (pull-down/input)
9 | GATGATTGTTCTCCCAGCTGATGAATTAGACTCATCGAGTAAACAAATTTTCCTAATCTTTCTGTTCAAGCGCCATCTAC | 0.943 RPM ratio (pull-down/input)
10 | GATGATTGTTCTCCCAGCTGATGAATTCCAATAATCGAGTAAACAAATTTTCCTAATCTTTCTGTTCAAGCGCCATCTAC | 1.1 RPM ratio (pull-down/input)
11 | GATGATTGTTCTCCCAGCTGATGAATTAGCCTCTTCGAGTAAACAAATTTTCCTAATCTTTCTGTTCAAGCGCCATCTAC | 0.925 RPM ratio (pull-down/input)
12 | GATGATTGTTCTCCCAGCTGATGAATTCGGGCATTCGAGTAAACAAATTTTCCTAATCTTTCTGTTCAAGCGCCATCTAC | 1.01 RPM ratio (pull-down/input)
13 | GATGATTGTTCTCCCAGCTGATGAATTCCAGAACTCGAGTAAACAAATTTTCCTAATCTTTCTGTTCAAGCGCCATCTAC | 0.723 RPM ratio (pull-down/input)
14 | GATGATTGTTCTCCCAGCTGATGAATTCTGTCGGTCGAGTAAACAAATTTTCCTAATCTTTCTGTTCAAGCGCCATCTAC | 0.838 RPM ratio (pull-down/input)
15 | GATGATTGTTCTCCCAGCTGATGAATTGTCACAATCGAGTAAACAAATTTTCCTAATCTTTCTGTTCAAGCGCCATCTAC | 1.58 RPM ratio (pull-down/input)
16 | GATGATTGTTCTCCCAGCTGATGAATTCCAACAATCGAGTAAACAAATTTTCCTAATCTTTCTGTTCAAGCGCCATCTAC | 1.27 RPM ratio (pull-down/input)
17 | GATGATTGTTCTCCCAGCTGATGAATTCAGCACTTCGAGTAAACAAATTTTCCTAATCTTTCTGTTCAAGCGCCATCTAC | 0.847 RPM ratio (pull-down/input)
18 | GATGATTGTTCTCCCAGCTGATGAATTGATGTTTTCGAGTAAACAAATTTTCCTAATCTTTCTGTTCAAGCGCCATCTAC | 2.82 RPM ratio (pull-down/input)
19 | GATGATTGTTCTCCCAGCTGATGAATTTGGGGGGTCGAGTAAACAAATTTTCCTAATCTTTCTGTTCAAGCGCCATCTAC | 0.775 RPM ratio (pull-down/input)
20 | GATGATTGTTCTCCCAGCTGATGAATTGTAACATTCGAGTAAACAAATTTTCCTAATCTTTCTGTTCAAGCGCCATCTAC | 1.4 RPM ratio (pull-down/input)

Row | Sequence | binding signal
21 | GATGATTGTTCTCCCAGCTGATGAATTACTAGAATCGAGTAAACAAATTTTCCTAATCTTTCTGTTCAAGCGCCATCTAC | 1.23 RPM ratio (pull-down/input)
22 | GATGATTGTTCTCCCAGCTGATGAATTTTGTAGATCGAGTAAACAAATTTTCCTAATCTTTCTGTTCAAGCGCCATCTAC | 0.951 RPM ratio (pull-down/input)
23 | GATGATTGTTCTCCCAGCTGATGAATTCTATCACTCGAGTAAACAAATTTTCCTAATCTTTCTGTTCAAGCGCCATCTAC | 0.873 RPM ratio (pull-down/input)
24 | GATGATTGTTCTCCCAGCTGATGAATTAACCTGCTCGAGTAAACAAATTTTCCTAATCTTTCTGTTCAAGCGCCATCTAC | 0.79 RPM ratio (pull-down/input)
25 | GATGATTGTTCTCCCAGCTGATGAATTGAATAAGTCGAGTAAACAAATTTTCCTAATCTTTCTGTTCAAGCGCCATCTAC | 0.918 RPM ratio (pull-down/input)
26 | GATGATTGTTCTCCCAGCTGATGAATTCTCACTTTCGAGTAAACAAATTTTCCTAATCTTTCTGTTCAAGCGCCATCTAC | 0.899 RPM ratio (pull-down/input)
27 | GATGATTGTTCTCCCAGCTGATGAATTAAACTGGTCGAGTAAACAAATTTTCCTAATCTTTCTGTTCAAGCGCCATCTAC | 0.847 RPM ratio (pull-down/input)
28 | GATGATTGTTCTCCCAGCTGATGAATTACCCATCTCGAGTAAACAAATTTTCCTAATCTTTCTGTTCAAGCGCCATCTAC | 0.901 RPM ratio (pull-down/input)
29 | GATGATTGTTCTCCCAGCTGATGAATTCCTAAAGTCGAGTAAACAAATTTTCCTAATCTTTCTGTTCAAGCGCCATCTAC | 0.796 RPM ratio (pull-down/input)
30 | GATGATTGTTCTCCCAGCTGATGAATTAGGCTAATCGAGTAAACAAATTTTCCTAATCTTTCTGTTCAAGCGCCATCTAC | 0.966 RPM ratio (pull-down/input)
31 | GATGATTGTTCTCCCAGCTGATGAATTTACCGCCTCGAGTAAACAAATTTTCCTAATCTTTCTGTTCAAGCGCCATCTAC | 1.17 RPM ratio (pull-down/input)
32 | GATGATTGTTCTCCCAGCTGATGAATTCAAGGACTCGAGTAAACAAATTTTCCTAATCTTTCTGTTCAAGCGCCATCTAC | 0.841 RPM ratio (pull-down/input)
33 | GATGATTGTTCTCCCAGCTGATGAATTCCGGGGCTCGAGTAAACAAATTTTCCTAATCTTTCTGTTCAAGCGCCATCTAC | 0.755 RPM ratio (pull-down/input)
34 | GATGATTGTTCTCCCAGCTGATGAATTTGCGACTTCGAGTAAACAAATTTTCCTAATCTTTCTGTTCAAGCGCCATCTAC | 1.14 RPM ratio (pull-down/input)
35 | GATGATTGTTCTCCCAGCTGATGAATTATCAGAGTCGAGTAAACAAATTTTCCTAATCTTTCTGTTCAAGCGCCATCTAC | 0.888 RPM ratio (pull-down/input)
36 | GATGATTGTTCTCCCAGCTGATGAATTGATCGAATCGAGTAAACAAATTTTCCTAATCTTTCTGTTCAAGCGCCATCTAC | 1.11 RPM ratio (pull-down/input)
37 | GATGATTGTTCTCCCAGCTGATGAATTGTATTTATCGAGTAAACAAATTTTCCTAATCTTTCTGTTCAAGCGCCATCTAC | 2.72 RPM ratio (pull-down/input)
38 | GATGATTGTTCTCCCAGCTGATGAATTTCACGCCTCGAGTAAACAAATTTTCCTAATCTTTCTGTTCAAGCGCCATCTAC | 0.864 RPM ratio (pull-down/input)
39 | GATGATTGTTCTCCCAGCTGATGAATTTACCAATTCGAGTAAACAAATTTTCCTAATCTTTCTGTTCAAGCGCCATCTAC | 1.48 RPM ratio (pull-down/input)
40 | GATGATTGTTCTCCCAGCTGATGAATTTCCGCGCTCGAGTAAACAAATTTTCCTAATCTTTCTGTTCAAGCGCCATCTAC | 0.891 RPM ratio (pull-down/input)
